Experimental data reported in paper PMC5042435.
These are yes or no findings as the source states them, for the method shown. Binding seen in cells or lysates may run through a third protein. Some entries that bind do so weakly or less than the wild type. Tags and fused reporters may be left off the sequences shown. One block for each binder: values may come before it.

Experiments:
Experiment in all cases: FRET or BRET; FLIM-FRET with acceptor photobleaching (FRAP) in nuclei of transiently transformed N. benthamiana leaves; donor mCer3 on NF-YC, acceptor YFP on HY5 or NF-YB2; donor lifetime before and after YFP photobleaching; 2-4 days after infiltration
[1] = target: T1, NF-YB2 fused to enhanced yellow fluorescent protein (NF-YB2:YFP) (Arabidopsis thaliana) (UniProt Q9FGJ3)
T1 sequence: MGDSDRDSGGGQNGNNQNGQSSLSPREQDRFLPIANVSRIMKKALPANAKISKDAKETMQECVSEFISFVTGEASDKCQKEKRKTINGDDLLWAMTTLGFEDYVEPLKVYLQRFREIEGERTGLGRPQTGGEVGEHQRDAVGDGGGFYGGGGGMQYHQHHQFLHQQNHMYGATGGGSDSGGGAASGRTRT

[2] = target: T2, ELONGATED HYPOCOTYL 5 fused to enhanced yellow fluorescent protein (HY5:YFP) (Arabidopsis thaliana), O24646; conditions: remark: other sources report otherwise
T2 chain: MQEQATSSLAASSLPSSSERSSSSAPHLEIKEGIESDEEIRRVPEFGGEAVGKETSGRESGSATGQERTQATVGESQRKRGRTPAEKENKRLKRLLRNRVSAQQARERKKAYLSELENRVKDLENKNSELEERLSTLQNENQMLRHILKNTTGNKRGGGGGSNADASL

[3] = target: T3, ELONGATED HYPOCOTYL 5 fused to enhanced yellow fluorescent protein (HY5:YFP) (Arabidopsis thaliana) (UniProt O24646)
T3 sequence: T2 chain

B1: NF-YC4 fused to modified cerulean 3 (NF-YC4:mCer3) (protein, UniProt Q9FMV5 1-250)
chain: MDNNNNNNNQQPPPTSVYPPGSAVTTVIPPPPSGSASIVTGGGATYHHLLQQQQQQLQMFWTYQRQEIEQVNDFKNHQLPLARIKKIMKADEDVRMISAEAPILFAKACELFILELTIRSWLHAEENKRRTLQKNDIAAAITRTDIFDFLVDIVPREEIKEEEDAASALGGGGMVAPAASGVPYYYPPMGQPAVPGGMMIGRPAMDPSGVYAQPPSQAWQSVWQNSAGGGDDVSYGSGGSSGHGNLDSQG
- binding [1]: binds

B4: NF-YC3 fused to modified cerulean 3 (NF-YC3:mCer3) (protein, UniProt Q9ZVL3 1-217)
chain: MDQQGQSSAMNYGSNPYQTNAMTTTPTGSDHPAYHQIHQQQQQQLTQQLQSFWETQFKEIEKTTDFKNHSLPLARIKKIMKADEDVRMISAEAPVVFARACEMFILELTLRSWNHTEENKRRTLQKNDIAAAVTRTDIFDFLVDIVPREDLRDEVLGGVGAEAATAAGYPYGYLPPGTAPIGNPGMVMGNPGAYPPNPYMGQPMWQQPGPEQQDPDN
- binding [1]: binds
- binding [3]: no binding

Continued, values first:

- binding [2]: no binding
B2: NF-YC4 fused to modified cerulean 3 (NF-YC4:mCer3), Q9FMV5 1-250 (protein)
chain: B1 chain

- binding [1]: binds
- binding [3]: binds
B3: NF-YC9 fused to modified cerulean 3 (NF-YC9:mCer3) (protein, UniProt Q8L4B2 1-231)
chain: MDQQDHGQSGAMNYGTNPYQTNPMSTTAATVAGGAAQPGQLAFHQIHQQQQQQQLAQQLQAFWENQFKEIEKTTDFKNHSLPLARIKKIMKADEDVRMISAEAPVVFARACEMFILELTLRSWNHTEENKRRTLQKNDIAAAVTRTDIFDFLVDIVPREDLRDEVLGSIPRGTVPEAAAAGYPYGYLPAGTAPIGNPGMVMGNPGGAYPPNPYMGQPMWQQQAPDQPDQEN
